Data from the supplement of paper PMC12355420.
Where a name gives a salt, the structure may show the parent alone. Some of the results follow. Rule as the data show it: active = 0.5 or less and inactive = the rest. Repeats are few or missing, and single values can be far off.

Legend:
Conditions in all cases: 50 µM; 24 h
[1] = system: HeLa VPS33A reporter cells; test: relative cell viability (CellMask signal) vs DMSO (fraction of DMSO); higher = less cytotoxic;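 also: primary screen of an FDA-approved drug library in HeLa reporter cells in 96-well format, CellMask signal normalized to DMSO-treated wells set as 1, under 0.5 deemed highly cytotoxic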
[2] = system: HeLa VPS33A R498W KI + HA-SDC1-FLAG; test: relative GAG core protein HA-SDC1 amount per cell number vs DMSO (fraction of DMSO); higher = more SDC1 (GAG core protein);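 also: HA-SDC1 level read out by In-Cell Western staining with an anti-HA antibody against the N-terminal tag, screening FDA-approved library drugs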
[3] = system: HeLa VPS33A KO + NLuc-VPS33A R498W; test: relative mutant VPS33A R498W amount (NanoLuc luminescence) vs DMSO (fraction of DMSO); HeLa model of a glycosaminoglycan (GAG) storage disease; KI is knock-in and KO knock-out; SDC1 is syndecan 1; higher = higher mutant VPS33A level;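 also: screen of an FDA-approved drug library, NanoLuc luminescence read after lysing the treated cells, taken as a measure of mutant VPS33A protein stability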

| Compound | relative cell viability [1] | relative GAG core protein HA-SDC1 amount per cell number [2] | relative mutant VPS33A R498W amount [3] |
| --- | --- | --- | --- |
| COC(=O)c1ccccc1O [Methyl salicylate] | 0.966 | inactive: 0.887 | 1.41 |
| CN(C)CC/C=C1/c2ccccc2COc2ccc(CC(=O)O)cc21 [Olopatadine HCl] | 1.04 | inactive: 0.953 | 1.26 |
| COc1nc2ccc(Br)cc2cc1[C@@H](c1ccccc1)[C@@](O)(CCN(C)C)c1cccc2ccccc12 [Bedaquiline fumarate] | 1.03 | active: 0.378 | 1.18 |
| NCCc1c[nH]cn1 [Histamine Phosphate] | 0.84 | inactive: 1.31 | 1.03 |
| COc1ccc2[nH]c([S@@+]([O-])Cc3ncc(C)c(OC)c3C)nc2c1 [Esomeprazole Sodium] | 1.12 | inactive: 0.844 | 0.924 |
| CC(C)=CCC/C(C)=C/CC/C(C)=C/CSc1ccccc1C(=O)O [Salirasib] | 0.917 | active: 0.479 | 0.784 |
| COc1cccc(OC)c1C(=O)OCc1cc(O)ccc1O[C@@H]1O[C@H](CO)[C@@H](O)[C@H](O)[C@H]1O [Curculigoside] | 0.96 | inactive: 0.82 | 1.12 |
| CC(C)(Oc1ccc(C(=O)c2ccc(Cl)cc2)cc1)C(=O)O [Fenofibric acid] | 1.11 | inactive: 0.93 | 1.23 |
| CCN(CC)C(=O)/C(C#N)=C/c1cc(O)c(O)c([N+](=O)[O-])c1 [Entacapone] | 0.941 | active: 0.471 | 2.54 |
| CC[C@H](C)[C@H](N)C1=N[C@H](C(=O)N[C@@H](CC(C)C)C(=O)N[C@H](CCC(=O)O)C(=O)N[C@H](C(=O)N[C@H]2CCCCNC(=O)[C@H](CC(N)=O)NC(=O)[C@@H](CC(=O)O)NC(=O)[C@H](Cc3cnc[nH]3)NC(=O)[C@@H](Cc3ccccc3)NC(=O)[C@H]([C@@H](C)CC)NC(=O)[C@@H](CCCN)NC2=O)[C@@H](C)CC)CS1 [Bacitracin] | 1.12 | inactive: 2.06 | 0.75 |
| NC(=O)c1ccc[n+]([C@@H]2O[C@H](COP(=O)([O-])OP(=O)(O)OC[C@H]3O[C@@H](n4cnc5c(N)ncnc54)[C@H](O)[C@@H]3O)[C@@H](O)[C@H]2O)c1 | 0.935 | inactive: 0.922 | 0.776 |
| CC(=O)N(CC(O)CO)c1c(I)c(C(=O)NCC(O)CO)c(I)c(C(=O)NCC(O)CO)c1I (stereo unspecified) [Iohexol] | 0.967 | inactive: 0.917 | 1.35 |
| O=S(=O)(c1cccc2c(O)nccc12)N1CCCNCC1 [Hydroxyfasudil hydrochloride] | 1.42 | inactive: 0.919 | 0.854 |
| Nc1nccs1 [Aminothiazole] | 1.07 | inactive: 1.23 | 1.18 |
| CCCN(CCC)S(=O)(=O)c1ccc(C(=O)O)cc1 [Probenecid] | 0.977 | inactive: 1.02 | 1.4 |
| Nc1nc(CC(=O)Nc2ccc(CCNC[C@H](O)c3ccccc3)cc2)cs1 [Mirabegron (YM178)] | 1.09 | inactive: 1.17 | 0.947 |
| COC(=O)CCc1ccc(OCC(O)CNC(C)C)cc1 (stereo unspecified) [Esmolol HCl] | 0.843 | inactive: 1.08 | 1.39 |
| CCC(=O)NS(=O)(=O)c1ccc(-c2c(-c3ccccc3)noc2C)cc1 [Parecoxib Sodium] | 1.25 | inactive: 1.16 | 0.53 |
| O=C(O)CCC(=O)O [Butane diacid] | 0.942 | inactive: 0.698 | 1.24 |
| C[C@H]1CN(C[C@H](Cc2ccccc2)C(=O)NCC(=O)O)CC[C@@]1(C)c1cccc(O)c1 [Alvimopan] | 1.05 | inactive: 1.37 | 1.47 |
| CCOC(=O)O[C@]1(C(=O)OCCl)CC[C@H]2[C@@H]3CCC4=CC(=O)C=C[C@]4(C)[C@H]3[C@@H](O)C[C@@]21C [Loteprednol etabonate] | 0.945 | inactive: 1.09 | 1.23 |
| C[C@@H]1NC(=O)[C@@H](N)CNC(=O)[C@H](C2CCNC(=N)N2)NC(=O)/C(=C/NC(N)=O)NC(=O)[C@H](CNC(=O)CC(N)CCCN)NC1=O.N=C1NCC[C@H]([C@@H]2NC(=O)/C(=C/NC(N)=O)NC(=O)[C@H](CNC(=O)C[C@@H](N)CCCN)NC(=O)[C@H](CO)NC(=O)[C@@H](N)CNC2=O)N1 [Capreomycin Sulfate] | 1.03 | inactive: 1.32 | 0.974 |
| C/C(O)=C(\C#N)C(=O)Nc1ccc(C(F)(F)F)cc1 [Teriflunomide] | 1.16 | inactive: 0.62 | 1.24 |
| C#C[C@]1(O)CC[C@H]2[C@@H]3CCc4cc(OC)ccc4[C@H]3CC[C@@]21C [Mestranol] | 1.15 | inactive: 1.31 | 1 |
| O=C1O[C@H]([C@@H](O)CO)C([O-])=C1O.[Na+] [Sodium ascorbate] | 0.932 | inactive: 0.946 | 1.07 |
| CCCN[C@H]1CCc2nc(N)sc2C1 [Pramipexole] | 1.28 | inactive: 1.2 | 1.75 |
| CC(C)Cc1ccc(C(C)C(=O)O)cc1 (stereo unspecified) [Ibuprofen] | 1.07 | inactive: 1.27 | 0.953 |
